In patent US10299477B2 (priority 2015, dated 2019):

Tests used:
Format in all cases: in vivo
Botrytis cinerea = assay: Test Example B: Gray mold on tomato; conditions: for Test B control value (gray mold on tomato): preventive, control value class; for Test B (control value class, gray mold on tomato): in vivo
From the text: [Test Example B] Gray Mold on Tomato
Seeds of a test plant (tomato variety: Oogata Fukuju) were planted followed by cultivating until three to five first leaves (true leaves) appeared.

Plasmopara viticola = assay: Test Example G: Downy mildew on vine; conditions: for Test G control value: 250 ppm sprayed before inoculation; for Test G control value (downy mildew on vine): 250 ppm spray (2.5 ml/pot), preventive, control value class; for Test G (control value class): 250 ppm spray; for Test G (control value class, downy mildew on vine): 250 ppm, sprayed 2.5 ml/pot before inoculation
From the text: [Test Example G] Downy Mildew on Vine
Seeds of a test plant (grape variety: Neomuscat) were planted followed by cultivating until three to four first leaves appeared. […] After the sprayed dilutions were dried, a zoosporangia suspension (1-2×10^4 zoosporangia/ml) of Plasmopara viticola was inoculated to the plants by spraying.

Alternaia brassicicola = assay: Test Example C: Alternaria sooty spot on cabbage; conditions: for Test C control value / Test C (control value class): Alternaria sooty spot on cabbage; for Test C control value (Alternaria sooty spot on cabbage): preventive, control value class; for Test C (control value class, Alternaria sooty spot on cabbage): in vivo
From the text: [Test Example C] Alternaria Sooty Spot on Cabbage
Seeds of a test plant (cabbage variety: Shikidori) were planted followed by cultivating until the cotyledons extended.

Puccinia recondita = assay: Test Example E: Brown rust on wheat; conditions: for Test E control value (brown rust on wheat): preventive, control value class; for Test E (control value class, brown rust on wheat): in vivo
From the text: [Test Example E] Brown Rust on Wheat

[1] = system: Blumeria graminis f sp. hordei; assay: Test Example D: Powdery mildew on barley; conditions: for Test D control value (powdery mildew on barley): preventive, control value class; for Test D (control value class, powdery mildew on barley): in vivo
From the text: [Test Example D] Powdery Mildew on Barley
After the sprayed dilutions were dried, conidia of Blumeria graminis f sp. hordei were inoculated to the plants by shaking off.

[2] = Downy mildew on vine, 7-10 days after inoculation
[3] = gray mold on tomato, Botrytis cinerea, 250 ppm spray
[4] = downy mildew on vine, Plasmopara viticola, 7-10 days after inoculation
[5] = brown rust on wheat, Puccinia recondita, 250 ppm spray
[6] = powdery mildew on barley, 250 ppm spray
[7] = evaluated 7-10 days after inoculation

SMILES	Test B control value (gray mold on tomato) (Botrytis cinerea; 250 ppm spray)	Test G control value (downy mildew on vine) (Plasmopara viticola; 7-10 days after inoculation)	Test C control value (Alternaria sooty spot on cabbage) (Alternaia brassicicola; 250 ppm spray)	Test E control value (brown rust on wheat) (Puccinia recondita; 250 ppm spray)	Test D control value (powdery mildew on barley) ([1]; 250 ppm spray)	other results
CCn1c(-c2c(F)cccc2F)c(-c2ccccc2C(F)(F)F)cc(Br)c1=O [Compound 148]						Test B control value (Botrytis cinerea; Gray mold on tomato): L (L shows 50% or less of control values); Test G control value (Plasmopara viticola; [2]): L (L shows 50% or less of control values); Test C control value (Alternaia brassicicola): L (L shows 50% or less of control values); Test E control value (Puccinia recondita; Brown rust on wheat): L (L shows 50% or less of control values); Test D control value ([1]; Powdery mildew on barley): L (L shows 50% or less of control values)
CCCCCOc1ccc(Cl)c(-c2ccc(=O)n(C)c2-c2c(F)cccc2F)c1 [Compound 255]	L (L shows 50% or less of control values)	L (L shows 50% or less of control values)	H (H shows more than 50% of control values)	L (L shows 50% or less of control values)	L (L shows 50% or less of control values)	
CCn1c(-c2c(F)cc(F)cc2F)c(-c2cccc(F)c2Cl)ccc1=O [Compound 486]						Test B (control value class) (Botrytis cinerea; [3]): H (H shows more than 50% of control values); Test G (control value class) (Plasmopara viticola; [4]): H (H shows more than 50% of control values); Test C (control value class) (Alternaia brassicicola; 250 ppm spray): H (H shows more than 50% of control values); Test E (control value class) (Puccinia recondita; [5]): H (H shows more than 50% of control values); Test D (control value class) [1, 6]: H (H shows more than 50% of control values)
CCOc1cccc(-c2cc(Cl)c(=O)n(CC)c2-c2c(F)cc(F)cc2F)c1Cl [Compound 809]						Test B (control value class) (Botrytis cinerea; Gray mold on tomato, control value=100{1-(n/3)}): H (H shows more than 50% of control values); Test G (control value class) (Plasmopara viticola; Downy mildew on vine, 2.5 ml/pot, evaluated 7-10 days after inoculation): L (L shows 50% or less of control values); Test C (control value class) (Alternaia brassicicola; control value=100{1-(n/3)}): H (H shows more than 50% of control values); Test E (control value class) (Puccinia recondita; Brown rust on wheat, control value=100{1-(n/3)}): H (H shows more than 50% of control values); Test D (control value class) ([1]; Powdery mildew on barley, control value=100{1-(n/3)}): L (L shows 50% or less of control values)
CN1C(=O)CCC(c2cc(F)cc(F)c2F)=C1c1c(F)cccc1F [Compound 437]						Test B (control value class) (Botrytis cinerea; [3]): H (H shows more than 50% of control values); Test G (control value class) (Plasmopara viticola; [4]): L (L shows 50% or less of control values); Test C (control value class) (Alternaia brassicicola; 250 ppm spray): L (L shows 50% or less of control values); Test E (control value class) (Puccinia recondita; [5]): H (H shows more than 50% of control values); Test D (control value class) [1, 6]: H (H shows more than 50% of control values)
CCn1c(-c2c(F)cncc2F)c(-c2cc(OC)cc(OC)c2Cl)ccc1=O [Compound 224]	H (H shows more than 50% of control values)	H (H shows more than 50% of control values)	H (H shows more than 50% of control values)	H (H shows more than 50% of control values)	H (H shows more than 50% of control values)	
CCn1c(-c2c(F)cc(F)cc2F)c(-c2ccc(F)cc2Cl)cc(F)c1=O [Compound 592]						Test B (control value class, gray mold on tomato) (Botrytis cinerea): H (H shows more than 50% of control values); Test G (control value class, downy mildew on vine) (Plasmopara viticola; [7]): L (L shows 50% or less of control values); Test C (control value class, Alternaria sooty spot on cabbage) (Alternaia brassicicola): H (H shows more than 50% of control values); Test E (control value class, brown rust on wheat) (Puccinia recondita): H (H shows more than 50% of control values); Test D (control value class, powdery mildew on barley) [1]: H (H shows more than 50% of control values)
CCc1cc(-c2cc(OC)ccc2Cl)c(-c2c(F)cccc2F)n(CC)c1=O [Compound 369]	H (H shows more than 50% of control values)	L (L shows 50% or less of control values)	H (H shows more than 50% of control values)	H (H shows more than 50% of control values)	H (H shows more than 50% of control values)	
Cn1c(-c2c(F)cccc2F)c(-c2cc(OCOCC[Si](C)(C)C)ccc2Cl)ccc1=O [Compound 246]	H (H shows more than 50% of control values)	L (L shows 50% or less of control values)	H (H shows more than 50% of control values)	H (H shows more than 50% of control values)	H (H shows more than 50% of control values)	
Cc1ccc(C2=C(c3c(F)cccc3F)N(C)C(=O)CC2)cc1 [Compound 268]	L (L shows 50% or less of control values)	H (H shows more than 50% of control values)	L (L shows 50% or less of control values)	H (H shows more than 50% of control values)	H (H shows more than 50% of control values)	
COc1cc(F)c(-c2c(-c3cc(OC)ccc3Cl)cc(C)c(=O)n2C)c(F)c1 [Compound 724]						Test B (control value class, gray mold on tomato) (Botrytis cinerea): H (H shows more than 50% of control values); Test G (control value class, downy mildew on vine) (Plasmopara viticola; [7]): L (L shows 50% or less of control values); Test C (control value class, Alternaria sooty spot on cabbage) (Alternaia brassicicola): H (H shows more than 50% of control values); Test E (control value class, brown rust on wheat) (Puccinia recondita): H (H shows more than 50% of control values); Test D (control value class, powdery mildew on barley) [1]: L (L shows 50% or less of control values)
CCn1c(-c2c(F)cc(F)cc2F)c(-c2cc(Cl)ccc2Cl)cc(Cl)c1=O [Compound 355]	H (H shows more than 50% of control values)	L (L shows 50% or less of control values)	H (H shows more than 50% of control values)	H (H shows more than 50% of control values)	H (H shows more than 50% of control values)	
COc1cc(F)c(-c2c(-c3cc(F)cc(F)c3Cl)ccc(=O)n2CC(F)F)c(F)c1 [Compound 678]						Test B (control value class, gray mold on tomato) (Botrytis cinerea): H (H shows more than 50% of control values); Test G (control value class, downy mildew on vine) (Plasmopara viticola; [7]): H (H shows more than 50% of control values); Test C (control value class, Alternaria sooty spot on cabbage) (Alternaia brassicicola): H (H shows more than 50% of control values); Test E (control value class, brown rust on wheat) (Puccinia recondita): H (H shows more than 50% of control values); Test D (control value class, powdery mildew on barley) [1]: H (H shows more than 50% of control values)
CCN1C(=O)CCC(c2cc(OC)cc(OC)c2)=C1c1c(F)cc(Br)cc1F [Compound 186]	H (H shows more than 50% of control values)	H (H shows more than 50% of control values)	H (H shows more than 50% of control values)	H (H shows more than 50% of control values)	L (L shows 50% or less of control values)	
Cn1c(-c2c(F)cccc2F)c(-c2ccc(Br)cc2)cc(Br)c1=O [Compound 290]	H (H shows more than 50% of control values)	H (H shows more than 50% of control values)	H (H shows more than 50% of control values)	H (H shows more than 50% of control values)	L (L shows 50% or less of control values)	
CCn1c(-c2c(F)cccc2F)c(-c2ccccc2C)ccc1=O [Compound 160]						Test B control value (Botrytis cinerea; Gray mold on tomato): H (H shows more than 50% of control values); Test G control value (Plasmopara viticola; [2]): H (H shows more than 50% of control values); Test C control value (Alternaia brassicicola): H (H shows more than 50% of control values); Test E control value (Puccinia recondita; Brown rust on wheat): H (H shows more than 50% of control values); Test D control value ([1]; Powdery mildew on barley): H (H shows more than 50% of control values)
